# Assay results reported in PMC13423814.
# Not every entry of the source has a single result; some have several. The other results are left out here. An entry can have further records. Some protein pairs were linked at several places, one record each.
# Key:
# Details in all cases: DSSO, in cells
# [1] = target: CCT2 (UniProt P78371)
# [2] = target: CAVIN1 (UniProt Q6NZI2)
# [3] = target: FDXR (UniProt P22570)
# [4] = target: HSPA9 (UniProt P38646)
# [5] = target: MDH2 (UniProt P40926)
# [6] = target: ACIN1 (UniProt Q9UKV3)
# [7] = target: EEF1D (UniProt P29692)
# [8] = target: ALDH2 (UniProt P05091)
# [9] = target: HSPE1 (UniProt P61604)
# [10] = target: CALR (UniProt P27797)
# [11] = target: CCT8 (UniProt P50990)
# [12] = target: COA3 (UniProt Q9Y2R0)
# [13] = target: ERLIN2 (UniProt O94905)
# [14] = target: C1QBP (UniProt Q07021)
# [15] = target: ECH1 (UniProt Q13011)
# [16] = target: IDH3A (UniProt P50213)
# [17] = target: LRPPRC (UniProt P42704)
# [18] = target: PITRM1 (UniProt Q5JRX3)
# [19] = target: TRAP1 (UniProt Q12931)
# [20] = target: TUFM (UniProt P49411)
# [21] = target: GALNT2 (UniProt Q10471)
# [22] = target: TMED4 (UniProt Q7Z7H5)
# [23] = target: EIF4G2 (UniProt P78344)
# [24] = target: COPA (UniProt P53621)
# [25] = target: DDX27 (UniProt Q96GQ7)
# [26] = target: DDX46 (UniProt Q7L014)
# [27] = target: DCTN2 (UniProt Q13561)
# [28] = target: DDX24 (UniProt Q9GZR7)
# [29] = target: CCT3 (UniProt P49368)
# [30] = target: DDX23 (UniProt Q9BUQ8)
# [31] = target: PRPF31 (UniProt Q8WWY3)
# [32] = target: WBP11 (UniProt Q9Y2W2)
# Sequence of UniProt P50990 (P50990 whole entry): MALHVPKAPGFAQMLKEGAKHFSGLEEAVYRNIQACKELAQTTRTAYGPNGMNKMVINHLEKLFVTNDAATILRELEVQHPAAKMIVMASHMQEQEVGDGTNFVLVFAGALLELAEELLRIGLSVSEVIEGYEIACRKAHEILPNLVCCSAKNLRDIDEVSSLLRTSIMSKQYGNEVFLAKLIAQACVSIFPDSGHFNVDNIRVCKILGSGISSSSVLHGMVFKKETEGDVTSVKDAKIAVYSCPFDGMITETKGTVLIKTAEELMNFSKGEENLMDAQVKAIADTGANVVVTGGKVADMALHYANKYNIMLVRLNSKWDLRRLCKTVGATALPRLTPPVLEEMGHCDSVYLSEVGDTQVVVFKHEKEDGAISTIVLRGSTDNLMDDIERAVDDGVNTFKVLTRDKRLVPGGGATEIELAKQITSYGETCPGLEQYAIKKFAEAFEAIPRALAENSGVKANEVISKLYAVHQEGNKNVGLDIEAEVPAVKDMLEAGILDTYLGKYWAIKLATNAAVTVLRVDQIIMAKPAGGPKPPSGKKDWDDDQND
# Sequence of SF3B1 (O75533 whole entry): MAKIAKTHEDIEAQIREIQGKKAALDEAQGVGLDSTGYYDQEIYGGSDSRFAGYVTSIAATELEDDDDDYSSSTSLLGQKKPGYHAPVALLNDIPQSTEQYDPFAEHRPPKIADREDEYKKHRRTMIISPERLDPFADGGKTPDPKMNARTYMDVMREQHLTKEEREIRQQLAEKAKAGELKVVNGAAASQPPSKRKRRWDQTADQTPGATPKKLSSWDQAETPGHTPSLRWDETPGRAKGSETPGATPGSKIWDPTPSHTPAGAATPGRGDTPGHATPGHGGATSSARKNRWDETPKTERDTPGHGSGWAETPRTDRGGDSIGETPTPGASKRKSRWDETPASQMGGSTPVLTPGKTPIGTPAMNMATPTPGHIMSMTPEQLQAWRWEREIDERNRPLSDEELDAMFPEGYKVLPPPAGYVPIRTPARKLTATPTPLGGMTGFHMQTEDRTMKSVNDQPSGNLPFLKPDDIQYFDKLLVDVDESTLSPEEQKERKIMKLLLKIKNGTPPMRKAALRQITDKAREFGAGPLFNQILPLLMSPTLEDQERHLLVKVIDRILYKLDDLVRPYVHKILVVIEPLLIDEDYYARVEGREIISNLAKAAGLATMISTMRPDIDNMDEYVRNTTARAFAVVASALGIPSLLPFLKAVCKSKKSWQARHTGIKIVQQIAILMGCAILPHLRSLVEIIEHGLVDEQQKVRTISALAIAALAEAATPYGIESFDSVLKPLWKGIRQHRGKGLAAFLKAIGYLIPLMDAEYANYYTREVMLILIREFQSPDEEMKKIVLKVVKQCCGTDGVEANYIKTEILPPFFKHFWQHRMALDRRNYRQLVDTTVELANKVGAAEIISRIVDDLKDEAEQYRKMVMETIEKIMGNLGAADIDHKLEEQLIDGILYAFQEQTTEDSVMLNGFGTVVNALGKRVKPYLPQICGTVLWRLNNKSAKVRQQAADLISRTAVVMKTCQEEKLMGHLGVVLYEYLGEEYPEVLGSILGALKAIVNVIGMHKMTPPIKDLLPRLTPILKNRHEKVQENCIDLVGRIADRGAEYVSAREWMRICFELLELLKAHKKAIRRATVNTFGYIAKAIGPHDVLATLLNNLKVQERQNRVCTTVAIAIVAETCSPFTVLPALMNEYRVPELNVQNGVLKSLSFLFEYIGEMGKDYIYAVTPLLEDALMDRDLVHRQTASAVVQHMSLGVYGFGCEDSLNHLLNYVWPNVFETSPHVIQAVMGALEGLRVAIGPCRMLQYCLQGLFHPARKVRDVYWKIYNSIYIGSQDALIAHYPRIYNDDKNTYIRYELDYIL
# Sequence of ACTR1A (P61163 whole entry): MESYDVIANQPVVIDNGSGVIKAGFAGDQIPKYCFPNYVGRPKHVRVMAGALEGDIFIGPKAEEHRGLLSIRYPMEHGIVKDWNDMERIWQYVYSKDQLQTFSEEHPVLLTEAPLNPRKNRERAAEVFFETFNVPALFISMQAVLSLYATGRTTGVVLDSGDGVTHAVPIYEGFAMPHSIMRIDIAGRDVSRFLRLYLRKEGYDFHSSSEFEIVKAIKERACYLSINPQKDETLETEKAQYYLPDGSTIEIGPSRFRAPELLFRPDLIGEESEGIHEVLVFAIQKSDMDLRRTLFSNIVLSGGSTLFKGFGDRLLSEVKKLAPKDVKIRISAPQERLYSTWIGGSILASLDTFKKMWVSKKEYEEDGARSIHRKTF
# Sequence of UniProt Q12931 (Q12931 whole entry): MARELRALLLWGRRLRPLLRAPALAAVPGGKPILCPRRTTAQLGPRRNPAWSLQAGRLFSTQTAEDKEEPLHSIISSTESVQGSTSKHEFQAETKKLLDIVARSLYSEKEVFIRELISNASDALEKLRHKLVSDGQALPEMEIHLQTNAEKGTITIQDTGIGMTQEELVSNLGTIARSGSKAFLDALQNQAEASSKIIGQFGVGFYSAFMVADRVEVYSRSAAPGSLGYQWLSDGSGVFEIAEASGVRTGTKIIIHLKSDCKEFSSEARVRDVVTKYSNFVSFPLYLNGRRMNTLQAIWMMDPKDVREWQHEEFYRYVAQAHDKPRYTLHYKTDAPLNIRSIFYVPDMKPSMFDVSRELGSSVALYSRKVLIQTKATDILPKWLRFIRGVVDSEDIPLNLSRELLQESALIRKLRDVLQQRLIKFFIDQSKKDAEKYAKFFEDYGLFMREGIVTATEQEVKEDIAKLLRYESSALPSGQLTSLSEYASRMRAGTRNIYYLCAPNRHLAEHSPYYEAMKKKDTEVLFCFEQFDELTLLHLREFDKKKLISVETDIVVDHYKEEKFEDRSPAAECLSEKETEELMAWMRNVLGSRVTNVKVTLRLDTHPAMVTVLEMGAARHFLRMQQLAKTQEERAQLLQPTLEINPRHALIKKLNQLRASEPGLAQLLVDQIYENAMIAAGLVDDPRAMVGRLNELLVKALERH
# Sequence of HSPD1 (P10809 whole entry): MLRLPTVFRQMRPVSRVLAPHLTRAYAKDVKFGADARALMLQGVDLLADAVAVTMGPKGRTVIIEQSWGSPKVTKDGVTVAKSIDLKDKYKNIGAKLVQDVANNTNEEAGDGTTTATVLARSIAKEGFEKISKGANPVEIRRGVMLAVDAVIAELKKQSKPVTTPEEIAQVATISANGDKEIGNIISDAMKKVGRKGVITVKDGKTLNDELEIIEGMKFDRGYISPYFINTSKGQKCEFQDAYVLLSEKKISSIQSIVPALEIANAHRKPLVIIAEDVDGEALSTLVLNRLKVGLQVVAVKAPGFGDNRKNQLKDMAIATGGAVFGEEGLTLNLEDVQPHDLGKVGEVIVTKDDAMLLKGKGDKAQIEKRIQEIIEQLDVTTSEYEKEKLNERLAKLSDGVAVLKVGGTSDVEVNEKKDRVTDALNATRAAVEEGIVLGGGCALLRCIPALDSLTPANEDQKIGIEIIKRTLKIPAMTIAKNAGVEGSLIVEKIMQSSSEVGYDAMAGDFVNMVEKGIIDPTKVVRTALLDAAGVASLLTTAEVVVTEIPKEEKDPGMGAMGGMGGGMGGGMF
# Sequence of CCT6A (P40227 whole entry): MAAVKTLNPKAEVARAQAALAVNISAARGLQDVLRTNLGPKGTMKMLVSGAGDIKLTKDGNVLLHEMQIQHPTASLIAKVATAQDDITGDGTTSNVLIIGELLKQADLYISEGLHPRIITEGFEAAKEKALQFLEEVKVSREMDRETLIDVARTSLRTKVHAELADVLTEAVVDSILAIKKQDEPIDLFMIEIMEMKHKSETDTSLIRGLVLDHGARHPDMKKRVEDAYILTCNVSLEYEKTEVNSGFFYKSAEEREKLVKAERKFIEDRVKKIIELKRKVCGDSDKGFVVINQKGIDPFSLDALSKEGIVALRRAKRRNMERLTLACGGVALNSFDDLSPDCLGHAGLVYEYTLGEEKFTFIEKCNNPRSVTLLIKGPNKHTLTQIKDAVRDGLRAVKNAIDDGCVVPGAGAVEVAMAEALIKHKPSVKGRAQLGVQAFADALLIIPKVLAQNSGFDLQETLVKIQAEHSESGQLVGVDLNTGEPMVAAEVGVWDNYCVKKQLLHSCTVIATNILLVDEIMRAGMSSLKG
# Sequence of GOT2 (P00505 whole entry): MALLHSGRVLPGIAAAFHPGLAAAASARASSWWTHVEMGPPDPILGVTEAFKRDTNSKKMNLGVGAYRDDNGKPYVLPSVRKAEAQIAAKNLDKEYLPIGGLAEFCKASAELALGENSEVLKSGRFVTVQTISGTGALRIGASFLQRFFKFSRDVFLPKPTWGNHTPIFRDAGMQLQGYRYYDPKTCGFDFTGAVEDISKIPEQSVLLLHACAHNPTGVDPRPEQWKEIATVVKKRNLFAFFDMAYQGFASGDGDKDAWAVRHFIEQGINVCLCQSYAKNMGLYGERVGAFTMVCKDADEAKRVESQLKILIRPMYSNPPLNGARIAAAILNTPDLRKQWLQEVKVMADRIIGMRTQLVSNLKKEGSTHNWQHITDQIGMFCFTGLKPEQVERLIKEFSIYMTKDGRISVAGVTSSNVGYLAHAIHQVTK
# Sequence of UniProt Q13561 (Q13561 whole entry): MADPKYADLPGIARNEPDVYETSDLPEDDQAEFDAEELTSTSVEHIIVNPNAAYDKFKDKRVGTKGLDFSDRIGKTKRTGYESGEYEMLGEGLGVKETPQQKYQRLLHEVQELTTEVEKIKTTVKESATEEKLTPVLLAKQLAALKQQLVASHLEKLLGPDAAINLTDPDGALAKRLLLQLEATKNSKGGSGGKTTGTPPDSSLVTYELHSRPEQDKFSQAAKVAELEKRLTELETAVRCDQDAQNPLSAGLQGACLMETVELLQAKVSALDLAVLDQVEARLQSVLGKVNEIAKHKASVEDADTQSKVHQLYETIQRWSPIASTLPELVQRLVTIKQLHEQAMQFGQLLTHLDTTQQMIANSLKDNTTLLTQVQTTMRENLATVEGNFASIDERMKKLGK
# Sequence of COX5B (P10606 whole entry): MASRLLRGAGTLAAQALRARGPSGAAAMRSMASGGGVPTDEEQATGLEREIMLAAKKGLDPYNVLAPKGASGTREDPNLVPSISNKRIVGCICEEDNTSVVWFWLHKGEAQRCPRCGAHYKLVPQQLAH
substance,measurement,setting,value
"CCT4, P50991",cross-linked residues,[1],K21 - K13 and K21 - K119 and K21 - K522 and K29 - K13 and K29 - K119 and K139 - K46 and K292 - K272 and K531 - K46
"CAVIN2, O95810",cross-linked residues,[2],K99 - K98 and K102 - K98 and K120 - K122
"HSPD1, P10809",cross-linked residues,[3],K133 - K287 and K191 - K287
same,cross-linked residues,[4],K31 - K206 and K31 - K625 and S70 - K625 and K75 - K625 and K75 - K671 and K125 - K206 and K133 - K394 and K133 - K625 and K473 - K138
same,cross-linked residues,[5],K91 - K239 and K130 - K239 and K133 - K239 and K191 - K239 and K191 - K301 and K359 - K239 and K364 - K239 and K469 - K239 and K473 - K239
"PNN, Q9H307",cross-linked residues,[6],K157 - K970 and K157 - K986 and K157 - K1073
"EEF1G, P26641",cross-linked residues,[7],K52 - K59 and K219 - K17 and K227 - K17 and K285 - K117 and K434 - K17 and K434 - K117
"GOT2, P00505",cross-linked residues,[8],K150 - T356 and K363 - K368
same,cross-linked residues,[9],K90 - K8 and K90 - K56 and K363 - K8 and K363 - K56
same,cross-linked residues,[5],K82 - K239 and K150 - K239 and K338 - K239 and K363 - K185 and K363 - K239 and K363 - K301
"SERPINE1, P05121",cross-linked residues,[10],K145 - K153 and K177 - K153
"TCP1, P17987",cross-linked residues,[11],K494 - K466 and K532 - K7
"COX5B, P10606",cross-linked residues,[12],S82 - T31 and S84 - K29 and K86 - K29
"ERLIN1, O75477",cross-linked residues,[13],K277 - K287 and K286 - K275 and K287 - K285 and K330 - K287
"HSPA9, P38646",cross-linked residues,[14],K135 - K123 and K291 - K123
same,cross-linked residues,[5],K138 - K239 and K206 - K239 and K300 - K239 and K394 - K239 and K567 - K239 and K612 - K239 and K625 - K239 and K671 - K239 and K678 - K239
"MDH2, P40926",cross-linked residues,[15],K239 - K231 and K239 - K318
same,cross-linked residues,[9],K239 - K8 and K239 - K28 and K239 - K36 and K239 - K56
same,cross-linked residues,[16],K239 - S176 and K239 - K339 and K239 - K343
same,cross-linked residues,[17],K239 - K66 and K239 - K868 and K239 - K1388
same,cross-linked residues,[18],K239 - K41 and K239 - K946
same,cross-linked residues,[19],K239 - K262 and K239 - K324 and K239 - K629 and K239 - K652
same,cross-linked residues,[20],K239 - K91 and K239 - K94
"TMED10, P49755",cross-linked residues,[21],K133 - K103 and K145 - K103
same,cross-linked residues,[22],K140 - K152 and K145 - K152
"EIF4A1, P60842",cross-linked residues,[23],K369 - K41 and K381 - K41
"COPB1, P53618",cross-linked residues,[24],K949 - K487 and K949 - K631
"CCT3, P49368",cross-linked residues,[11],K21 - K7 and K21 - K16 and K21 - K20 and K21 - K459 and K31 - K20
"RPL35, P42766",cross-linked residues,[25],K35 - K610 and S42 - K625 and K43 - K610
"SF3B1, O75533",cross-linked residues,[26],S332 - K316 and K333 - K316 and K493 - K248
"ACTR1A, P61163",cross-linked residues,[27],K361 - K65 and K361 - K125 and K361 - K132
"RPL18A, Q02543",cross-linked residues,[28],K41 - K17 and K41 - K21
"CCT6A, P40227",cross-linked residues,[29],K5 - T14 and K5 - K78 and K10 - S11 and K10 - K21 and K10 - K31 and K10 - K78 and K530 - K78 and K530 - K527
same,cross-linked residues,[11],K5 - K20 and K10 - K7 and K10 - K16 and K10 - K20 and K199 - K400 and K251 - K270
"PRPF8, Q6P2Q9",cross-linked residues,[30],K278 - K259 and K2249 - K204
same,cross-linked residues,[31],K847 - K417 and K1831 - K422
same,cross-linked residues,[32],K2031 - K46 and T2033 - K51
